Assay results published in patent US20190100594A1 (INHIBRX, published 2019).

Legend:
[1] = target: T1, GITR on activated primary human T cells; test: flow cytometry on in vitro activated primary human CD4 T cells (three donors), anti-hIgG secondary antibody
T1 construct: GITR is the target of the anti-GITR molecule
T1 chain: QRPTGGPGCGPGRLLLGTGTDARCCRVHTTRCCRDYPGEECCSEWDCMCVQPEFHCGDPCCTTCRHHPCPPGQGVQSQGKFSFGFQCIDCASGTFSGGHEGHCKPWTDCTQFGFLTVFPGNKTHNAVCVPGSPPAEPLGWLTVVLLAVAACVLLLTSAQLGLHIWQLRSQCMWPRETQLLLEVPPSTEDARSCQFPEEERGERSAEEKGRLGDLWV
Protocol: Total PBMC or purified Treg isolated by fluorescence-activated cell sorting were prepared from healthy human donors. The cells were activated in vitro with anti-CD3 and anti-CD28 supplemented with recombinant human IL2. The cells were incubated with varying concentrations of tetravalent hzC06-hIgG1 and a surface phenotyping antibody cocktail. Samples were then washed and stained with a fluorescently-labeled anti-hIgG secondary antibody and then assessed by flow cytometry. Activated CD4 T cells were identified by staining with CD3, CD4, and CD25. Results of these studies are shown in FIG. 7 for activated CD4 T cells from three donors (closed symbols, solid lines) and activated Treg from two donors (open symbols, dashed lines).

[2] = target: T2, human GITR extracellular domain human IgG1 fusion protein (GITR-Fc) (human, UniProt Q9Y5U5 26-162, biotinylated (site not stated)); test: SPR, biotinylated GITR-Fc captured on chip, binder injected at 0-600 nM
T2 construct: extracellular domain; The protein was captured on the SPR chip through biotin; also called human GITR-Fc; not shown: human IgG1 Fc portion of the fusion
T2 sequence (looked up): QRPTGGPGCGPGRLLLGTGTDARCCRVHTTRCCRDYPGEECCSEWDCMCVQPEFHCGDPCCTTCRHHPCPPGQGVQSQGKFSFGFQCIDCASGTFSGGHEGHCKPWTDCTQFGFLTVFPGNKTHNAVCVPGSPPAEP
Protocol: (§1) The binding affinities of the GITR-targeting molecule referred to herein as bivalent hzC06v3.9-hIgG1 or 2×hzC06v3.9-IgG1 Fc (SEQ ID NO: 93) for human and cynomolgus GITR extracellular domain human IgG1 fusion protein (GITR-Fc) were determined by surface plasmon resonance. Briefly, biotinylated human and cynomolgus GITR-Fc were captured on the chip surface and then bivalent hzC06v3.9-hIgG1 was injected at 10 concentrations (0 nM-600 nM) at 40 ul/min for 120 seconds.

[3] = target: T3, cynomolgus GITR extracellular domain human IgG1 fusion protein (GITR-Fc) (cynomolgus; human); test: as above
T3 construct: extracellular domain; The protein was captured on the SPR chip through biotin; also called cynomolgus GITR-Fc
Protocol: as §1

B1: 2×hzC06v3.9-IgG1 Fc (SEQ ID NO: 93) (Fc fusion)
chain: EVQLLESGGGEVQPGGSLRLSCAASGSVFSIDAMGWYRQAPGKQRELVAVLSGISSAKYAASAPGRFTISRDNAKNTVYLQMSSLRAEDTAVYYCYADVSTGWGRDAHGYWGQGTLVTVKPGGSGGSEVQLLESGGGEVQPGGSLRLSCAASGSVFSIDAMGWYRQAPGKQRELVAVLSGISSAKYAASAPGRFTISRDNAKNTVYLQMSSLRAEDTAVYYCYADVSTGWGRDAHGYWGQGTLVTVKPGGGG[human IgG1 Fc not printed]
notes: also called bivalent hzC06v3.9-hIgG1; 2x hzC06 IgG1-Fc
Question: What does the source list for B1?
Answer: EC50 (read off the curve) [1]: ~0.2 nM; Kd [2]: 6.4 nM; koff [2]: 0.00412 s⁻¹; kon [2]: 640000 M⁻¹ s⁻¹; Kd [3]: 87.1 nM; koff [3]: 0.0106 s⁻¹; kon [3]: 122000 M⁻¹ s⁻¹
